Reference: PubChem BioAssay (NCATS)
Several values for one entry are separate records, joined by “and”; a condition that tells them apart may be missing. Equal values may be shown once. This list was built around the results that the source calls inconclusive (neither active nor inactive); the mix of calls is not that of the screen. Potencies beside an inconclusive call are fits to weak or partial responses and may not hold up. Activity calls are given as the source filed them. The call rests on the fitted dose curve; in most records, active means well fitted inhibition curve with a large enough effect; inconclusive means small, poorly fitted or top-dose-only effect; inactive means no such curve, though single readings can be large or run the other way.

Assay: Primary qHTS for inhibitors of nuclear receptor binding SET domain protein 2 (NSD2) in an RCH-ACV wild type WT cells (2C) (AID 1645877); further: nearly all actives have a fitted effect of over 70% in size
Details: RCH-ACV (leukaemia line) NSD2 WT (2C) viability, CellTiter-Glo, 72 h; series mostly up to 44.9 µM
Potency means the concentration at half of the fitted maximal effect; tags describe the fitted curve by direction and shape.

| SMILES | Potency |
| --- | --- |
| ClC1=C(Cl)[C@]2(Cl)[C@@H]3[C@@H]4C[C@@H]([C@H]5O[C@@H]45)[C@@H]3[C@@]1(Cl)C2(Cl)Cl | inconclusive: 68.6 µM [inhibitor, single point] |
| CCN(CC)C(=O)c1ccc(C2=CC3(CCNCC3)Oc3cccc(O)c32)cc1 | inconclusive: 9.34 µM [inhibitor, full curve, poor fit] |
| CCOP(=O)(NC(C)C)Oc1ccc(SC)c(C)c1 (configuration not stated) | inconclusive: 38.6 µM [inhibitor, single point] |
| O=C(N[C@H]1CN2CCC1CC2)c1cc2cccc(Cl)c2s1 | inconclusive: 23 µM [inhibitor, single point] |
| CNC(C)Cc1ccc2c(c1)OCO2 (configuration not stated) | inconclusive: 66.9 µM [inhibitor, single point] |
| Nc1ccc(Cl)cc1N | inconclusive: 68.6 µM [inhibitor, single point] |
| CCC(C)C1NC(=O)C(C(C)=O)=C1O (configuration not stated) | inconclusive: 41.9 µM [inhibitor, single point] |
| Nc1ccccc1C(=O)O | inconclusive: 26.6 µM [inhibitor, single point] |
| O=C1CN=C(c2ccccc2)c2cc([N+](=O)[O-])ccc2N1 | inconclusive: 33.5 µM [inhibitor, single point] |
| CC(C)CC(N(C)C)C1(c2ccc(Cl)cc2)CCC1 (configuration not stated) | inconclusive: 33.5 µM [inhibitor, single point] and inconclusive: 11.8 µM [inhibitor, single point] |
| Oc1ccc([C@H]2CNCc3c2ccc(O)c3O)cc1O | inconclusive: 29.9 µM [inhibitor, single point] |
| CNC(=O)Oc1cccc2ccccc12 | inconclusive: 15 µM [inhibitor, partial curve] |
| CCC(=O)C(CCN(C)C)(c1ccccc1)c1ccccc1 | inconclusive: 21.1 µM [inhibitor, single point] |
| CCCCCCC1C(=O)O[C@H](C)[C@H](NC(=O)c2cccc(NC=O)c2O)C(=O)O[C@@H](C)[C@@H]1OC(=O)CC(C)C (some centres not stated) | inconclusive: 0.0145 µM [inhibitor, full curve, poor fit] |
| COc1cccc(NCC(F)Cn2c3ccc(Br)cc3c3cc(Br)ccc32)c1 (configuration not stated) | active: 20.5 µM |
| Nc1ccc([N+](=O)[O-])cc1 | inconclusive: 68.6 µM [inhibitor, partial curve, poor fit] |
| COc1ccc2c(c1OC)CN1CCc3cc4c(cc3C1C2)OCO4 (configuration not stated) | active: 10.6 µM and inconclusive: 13 µM [inhibitor, partial curve] |
| CCN(CC)C(=O)N[C@@H]1C=C2c3cccc4[nH]cc(c34)C[C@@H]2N(C)C1 | inconclusive: 33.5 µM [inhibitor, single point] |
| Cc1ncc(OC[C@@]2(c3cccc(F)c3)C[C@H]2C(=O)Nc2ccc(F)cn2)c(C)n1 | inconclusive: 33.2 µM [inhibitor, partial curve, poor fit] |
| CC(=O)OC[C@]12[C@H](OC(C)=O)C(=O)[C@@H]3[C@@H](O)[C@@]14O[C@@]3(C)COC(=O)c1cccnc1[C@@H](C)[C@H](C)C(=O)O[C@@H]([C@H](OC(C)=O)[C@@H]2OC(C)=O)[C@]4(C)O | inconclusive: 6.08 µM [inhibitor, single point] |
| NNc1ccccc1 | inconclusive: 29.9 µM [inhibitor, single point] |
| C[C@H]1CN(CC[C@H](O)C2CCCCC2)CC[C@@]1(C)c1cccc(O)c1 | inconclusive: 20.5 µM [inhibitor, single point] |
| O=C(N/N=C/c1ccc([N+](=O)[O-])o1)c1cc([N+](=O)[O-])cc([N+](=O)[O-])c1O | inconclusive: 29.9 µM [inhibitor, single point] |
| C[C@]12CCC(=O)C=C1CC[C@@H]1[C@H]3CC[C@](C)(O)[C@@]3(C)CC[C@@H]12 | active: 21.9 µM |
| C=CC/C=C\C/C=C\CCCCCCCc1cc(O)cc(O)c1 | inconclusive: 7.13 µM [inhibitor, partial curve, poor fit] |
| CC(Cc1ccc(O)cc1)NCC(O)c1cc(O)cc(O)c1 (configuration not stated) | inconclusive: 23.7 µM [inhibitor, single point] |
| Cc1sc2c(c1C)C(c1ccc(Cl)cc1)=NC(CC(=O)OC(C)(C)C)c1nnc(C)n1-2 (configuration not stated) | active: 0.129 µM |
